# Lines with a small IC50 respond at low doses; fits outside the tested doses are given as limits. For AUC the same curve is integrated over the 256-fold range of doses and scaled to a fraction; the more sensitive the line, the further below 1. The top dose, if marked as inferred, comes from the curve model; the source does not state it. For some assays here: An entry number marks a drug with two screens in the source, which often give different values.
# Legend:
# Experiment in all cases: Viability of human cancer cell lines after 72 h of drug (GDSC screen)
# Shikonin = compound: CC(C)=CC[C@@H](O)C1=CC(=O)c2c(O)ccc(O)c2C1=O [Shikonin]; settings: top dose 16 µM; top dose inferred
# Protocol: (§1)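 Human cancer cell lines in 384-well plates, medium with 10% serum, drug for 72 h over a 256-fold dose range (nine 2-fold or five 4-fold steps up to the top dose). Adherent lines were fixed and stained with the nucleic acid dye Syto60, suspension lines read with resazurin; signal relative to control wells, capped at 0 and 100%. One two-parameter sigmoid per drug and line, fitted in a mixed model over all curves with the slope shared within a line.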
# CGP-082996 (CINK4) = compound: CCNc1cc(NC2CCC(O)CC2)nc(Nc2ccc3c(ccn3Cc3ccccc3)c2)n1 [CGP-082996 (CINK4)]; settings: top dose 5.12 µM; top dose inferred
# Protocol: as §1
# A-770041 = compound: COc1cc(-c2nn([C@H]3CC[C@H](N4CCN(C(C)=O)CC4)CC3)c3ncnc(N)c23)ccc1NC(=O)c1cc2ccccc2n1C [A-770041]; settings: top dose 5.12 µM; top dose inferred
# Protocol: as §1
# XMD8-85 = compound: COc1cc(N2CCN(C)CC2)ccc1Nc1ncc2c(n1)N(C)c1ccccc1C(=O)N2C [XMD8-85]; settings: top dose 8 µM; top dose inferred
# Protocol: as §1
# BMS-536924 = compound: Cc1cc(N2CCOCC2)cc2[nH]c(-c3c(NC[C@@H](O)c4cccc(Cl)c4)cc[nH]c3=O)nc12 [BMS-536924]
# Protocol: as §1
# SB-525334 = compound: Cc1cccc(-c2[nH]c(C(C)(C)C)nc2-c2ccc3nccnc3c2)n1 [SB-525334]; settings: top dose 20 µM; top dose inferred
# Protocol: as §1
# VX-702 = compound: NC(=O)c1ccc(N(C(N)=O)c2c(F)cccc2F)nc1-c1ccc(F)cc1F [VX-702]; settings: top dose 2 µM; top dose inferred
# Protocol: as §1
# Olaparib = compound: O=C(c1cc(Cc2n[nH]c(=O)c3ccccc23)ccc1F)N1CCN(C(=O)C2CC2)CC1 [Olaparib]
# Protocol: as §1
# Wee1 inhibitor 681640 = compound: O=C1NC(=O)c2c1c(-c1ccccc1Cl)cc1[nH]c3ccc(O)cc3c21 [Wee1 inhibitor 681640]; settings: top dose 2 µM; top dose inferred
# Protocol: as §1
# [1] = top dose 5.12 µM, screen: GDSC drug entry 62
# [2] = top dose 4 µM, screen: GDSC drug entry 1091, top dose inferred
# [3] = top dose 5 µM, screen: GDSC drug entry 1017, top dose inferred
# [4] = top dose 10 µM, screen: GDSC drug entry 1495
Cell Line,AUC (Shikonin),IC50 (Shikonin),AUC (CGP-082996 (CINK4)),IC50 (CGP-082996 (CINK4)),AUC (A-770041),IC50 (A-770041),AUC (XMD8-85),IC50 (XMD8-85),AUC (BMS-536924; [1]),IC50 (BMS-536924; [1]),AUC (SB-525334),IC50 (SB-525334),AUC (BMS-536924; [2]),IC50 (BMS-536924; [2]),AUC (VX-702),IC50 (VX-702),AUC (Olaparib; [3]),IC50 (Olaparib; [3]),AUC (Olaparib; [4]),IC50 (Olaparib; [4]),AUC (Wee1 inhibitor 681640),IC50 (Wee1 inhibitor 681640)
"NCI-H2196 (small cell lung carcinoma, adherent)",0.475,0.854 µM,0.97,> 5.12 µM,0.973,> 5.12 µM,0.977,> 8 µM,0.947,> 5.12 µM,0.848,16 µM,,,,,,,,,,
"NK-92MI (lymphoid neoplasm, suspension)",0.257,0.213 µM,0.904,> 5.12 µM,0.783,1.99 µM,0.923,> 8 µM,0.55,0.434 µM,,,,,,,,,,,,
"RL95-2 (endometrium, adherent)",0.467,0.811 µM,0.823,2.98 µM,0.552,0.442 µM,0.886,> 8 µM,0.653,0.845 µM,0.987,> 20 µM,0.907,> 4 µM,0.986,> 2 µM,0.969,> 5 µM,0.947,> 10 µM,,
"SCC-3 (B-cell lymphoma, suspension)",0.334,0.397 µM,0.928,4.16 µM,0.992,> 5.12 µM,0.938,7.11 µM,0.874,2.76 µM,0.994,> 20 µM,,,,,,,,,,
"SIG-M5 (acute myeloid leukaemia, suspension)",0.212,0.192 µM,0.92,4.33 µM,0.871,2.9 µM,0.75,2.08 µM,0.502,,0.84,9.09 µM,,,,,,,,,,
"SU-DHL-1 (anaplastic large cell lymphoma, suspension)",0.471,0.854 µM,0.993,> 5.12 µM,0.995,> 5.12 µM,0.982,> 8 µM,0.77,1.45 µM,0.946,18.9 µM,,,,,,,,,,
"TALL-1 (T-cell lymphoblastic leukaemia, suspension)",0.842,10.4 µM,0.944,> 5.12 µM,0.849,3.56 µM,0.944,> 8 µM,0.879,4.84 µM,0.965,> 20 µM,,,,,,,,,,
"TE-441-T (rhabdomyosarcoma, adherent)",0.155,0.0917 µM,0.986,> 5.12 µM,0.883,5.1 µM,0.963,> 8 µM,0.989,> 5.12 µM,0.795,8.9 µM,,,,,,,,,,
"THP-1 (acute myeloid leukaemia, suspension)",0.496,0.978 µM,0.985,> 5.12 µM,0.989,> 5.12 µM,0.951,> 8 µM,0.969,> 5.12 µM,0.967,> 20 µM,0.969,> 4 µM,0.991,> 2 µM,,,,,0.99,> 2 µM

# From the supplement of paper PMC4967469
